Laboratory results taken from US20200031885A1 (published 2020).
Non-standard residues stand in square brackets, D forms with d. No end group written: not given here. pY = N[C@@H](Cc1ccc(OP(=O)(O)O)cc1)C(=O)O

Columns and labels:
Assay in all cases: affinity capture from mixture of 54 pTyr peptides, PRM-MS
[1] = biological target: T1, EPHA8 (pTyr793) peptide VLEDDPDAApYTTTGGK
T1 peptide: VLEDDPDAA[pY]TTTGGK

[2] = biological target: T2, JAK2 (pTyr221) peptide IQDpYHILTR
T2 peptide: IQD[pY]HILTR

[3] = biological target: T3, EPHB3 (pTyr792) peptide FLEDDPSDPTpYTSSLGGK
T3 peptide: FLEDDPSDPT[pY]TSSLGGK

[4] = biological target: T4, EPHA1 (pTyr781) peptide LLDDFDGTpYETQGGK
T4 peptide: LLDDFDGT[pY]ETQGGK

[5] = biological target: T5, INSRR (pTyr1145/1146) peptide DVYETDpYpYR
T5 peptide: DVYETD[pY][pY]R

[6] = biological target: T6, EPHA2 (pTyr772) peptide VLEDDPEATpYTTSGGK
T6 peptide: VLEDDPEAT[pY]TTSGGK

[7] = biological target: T7, PTK7 (pTyr960/961) peptide DVYNSEpYpYHFR
T7 peptide: DVYNSE[pY][pY]HFR

[8] = biological target: T8, TEC (pTyr519) peptide YVLDDQpYTSSSGAK
T8 peptide: YVLDDQ[pY]TSSSGAK

[9] = biological target: T9, ERBB2 (pTyr877) peptide LLDIDETEpYHADGGK
T9 peptide: LLDIDETE[pY]HADGGK

[10] = biological target: T10, LMTK2 (pTyr295) peptide EDpYIETDDK
T10 peptide: ED[pY]IETDDK

[11] = biological target: T11, RET (pTyr905) peptide DVYEEDSpYVK
T11 peptide: DVYEEDS[pY]VK

[12] = biological target: T12, SRMS (pTyr380) peptide DDIpYSPSSSSK
T12 peptide: DDI[pY]SPSSSSK

[13] = biological target: T13, TIE1 (pTyr1007) peptide GEEVpYVK
T13 peptide: GEEV[pY]VK

[14] = biological target: T14, ITK (pTyr512) peptide FVLDDQpYTSSTGTK
T14 peptide: FVLDDQ[pY]TSSTGTK

[15] = biological target: T15, PGFRB (pTyr857) peptide DSNpYISK
T15 peptide: DSN[pY]ISK

[16] = biological target: T16, EPHA3 (pTyr779) peptide VLEDDPEAApYTTR
T16 peptide: VLEDDPEAA[pY]TTR

[17] = biological target: T17, HCK (pTyr411) peptide VIEDNEpYTAR
T17 peptide: VIEDNE[pY]TAR

[18] = biological target: T18, FRK (pTyr387) peptide VDNEDIpYESR
T18 peptide: VDNEDI[pY]ESR

[19] = biological target: T19, KIT (pTyr823) peptide NDSNpYVVK
T19 peptide: NDSN[pY]VVK

[20] = biological target: T20, TIE2 (pTyr992) peptide GQEVpYVK
T20 peptide: GQEV[pY]VK

[21] = biological target: T21, EPHB1 (pTyr778) peptide YLQDDTSDPTpYTSSLGGK
T21 peptide: YLQDDTSDPT[pY]TSSLGGK

[22] = biological target: T22, VGFR2 (pTyr1059) peptide DPDpYVR
T22 peptide: DPD[pY]VR

[23] = biological target: T23, VGFR1 (pTyr1053) peptide NPDpYVR
T23 peptide: NPD[pY]VR

[24] = biological target: T24, BLK (pTyr389) peptide IIDSEpYTAQEGAK
T24 peptide: IIDSE[pY]TAQEGAK

[25] = biological target: T25, BMX (pTyr566) peptide YVLDDQpYVSSVGTK
T25 peptide: YVLDDQ[pY]VSSVGTK

[26] = biological target: T26, EPHB4 (pTyr774) peptide FLEENSSDPTpYTSSLGGK
T26 peptide: FLEENSSDPT[pY]TSSLGGK

[27] = biological target: T27, SRC (pTyr419) peptide LIEDNEpYTAR
T27 peptide: LIEDNE[pY]TAR

[28] = biological target: T28, GSK3 (pTyr279/216) peptide GEPNVSpYICSR
T28 peptide: GEPNVS[pY]ICSR

[29] = biological target: T29, FER (pTyr714) peptide QEDGGVpYSSSGLK
T29 peptide: QEDGGV[pY]SSSGLK

[30] = biological target: T30, MERTK (pTyr753/754) peptide IYSGDpYpYR
T30 peptide: IYSGD[pY][pY]R

[31] = biological target: T31, FES (pTyr713) peptide EEADGVpYAASGGLR
T31 peptide: EEADGV[pY]AASGGLR

B1: wild-type (wt) human Src SH2 domain expressed with His6 and GST tags (other)
chain: not shown
notes: also called wt SH2 domain; parent human Src SH2 domain
B1: no binding (tested: 10 nmole SH2 domain) [1]; no binding (tested: 10 nmole SH2 domain) [2]; no binding (tested: 10 nmole SH2 domain) [3]. B1: no binding (tested: 10 nmole SH2 domain) [4]; no binding (tested: 10 nmole SH2 domain) [5]; no binding (tested: 10 nmole SH2 domain) [6]. B1: no binding (tested: 10 nmole SH2 domain) [7]; no binding (tested: 10 nmole SH2 domain) [8]; no binding (tested: 10 nmole SH2 domain) [9]. B1: no binding (tested: 10 nmole SH2 domain) [10]; no binding (tested: 10 nmole SH2 domain) [11]; no binding (tested: 10 nmole SH2 domain) [12]. B1: no binding (tested: 10 nmole SH2 domain) [13]; no binding (tested: 10 nmole SH2 domain) [14]; no binding (tested: 10 nmole SH2 domain) [15]. B1: no binding (tested: 10 nmole SH2 domain) [16]; no binding (tested: 10 nmole SH2 domain) [17]; no binding (tested: 10 nmole SH2 domain) [18]. B1: no binding (tested: 10 nmole SH2 domain) [19]; no binding (tested: 10 nmole SH2 domain) [20]; no binding (tested: 10 nmole SH2 domain) [21]. B1: no binding (tested: 10 nmole SH2 domain) [22]; no binding (tested: 10 nmole SH2 domain) [23]; no binding (tested: 10 nmole SH2 domain) [24]. B1: no binding (tested: 10 nmole SH2 domain) [25]; no binding (tested: 10 nmole SH2 domain) [26]; no binding (tested: 10 nmole SH2 domain) [27]. B1: no binding (tested: 10 nmole SH2 domain) [28]; no binding (tested: 10 nmole SH2 domain) [29]; no binding (tested: 10 nmole SH2 domain) [30]. B1: no binding (tested: 10 nmole SH2 domain) [31].
